In PubChem BioAssay AID686979 (National Center for Advancing Translational Sciences (NCATS), 2013):
Where “and” joins values, the source holds several entries; their conditions need not be identical. Identical values can stand only once. Screen size: about 420,000 compounds; about 50,000 (12%) were called active. The inconclusive results got no clear call from the source; some entries with a clear call stand among them for comparison. Calls follow the shape of the dose curve; as a rule, active = well fitted inhibition curve with a large enough effect; inconclusive = small, poorly fitted or top-dose-only effect; inactive = flat fitted curve, though single readings scatter. Where the call is inconclusive, the potency comes from a doubtful curve fit.

Experiment: qHTS for Inhibitors of human tyrosyl-DNA phosphodiesterase 1 (TDP1): qHTS in cells in presence of CPT; also: nearly all actives have a fitted effect of over 55% in size
Settings: chicken DT40 Tdp1-/-;hTDP1 cells + 20 nM CPT, ATP luminescence, 48 h; series mostly up to 46.2 µM
In short: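 Cell growth measured by CellTiter-Glo luminescence after a minimum 48 h, 37 C compound exposure with 20 nM CPT in Tdp1-knockout DT40 cells stably expressing hTDP1, seeded 400/well; qHTS titration format.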
Potency is read from the fitted curve at half-maximal effect; tags tell the direction and shape of the fitted curve.

Structure (SMILES)	Potency
C=CCNC(=O)c1ccc(-c2nc3ccccc3nc2-c2ccccc2)cc1	inconclusive: 29.1 µM [inhibitor, single point]
Cc1ccc(C(=O)/C=C/Nc2cccc([N+](=O)[O-])c2)o1	inactive
COc1ccc(C(=O)NCC(c2ccc3c(c2)OCO3)N2CCN(C)CC2)cc1 (centres undefined)	inactive
Cc1cc(=O)oc(C)c1C(=O)NCCCN1C(C)CCCC1C (centres undefined)	inactive
CSc1nsc(SCC(=O)Nc2ccccc2C(=O)O)n1	inconclusive: 18.4 µM [inhibitor, partial curve]
CCOC(=O)C1CCCN(CC(=O)Nc2nc(-c3ccccc3)cs2)C1 (centres undefined)	inconclusive: 18.4 µM [inhibitor, single point]
Cc1ccc(C)c(OCCCC(=O)O)c1	inactive
Cc1cccc(C)c1C(O)c1ncc(-c2ccccc2C(F)(F)F)[nH]1 (centres undefined)	inactive
COc1ccc(NC(=O)CSc2ccc3c(c2)OCCO3)cc1S(N)(=O)=O	inconclusive: 14.6 µM [inhibitor, partial curve]
COc1cccc(CN(C)C(=O)c2cc(-c3cccs3)nc3ccccc23)c1	active: 20.6 µM
O=C(CN1C(=O)c2ccccc2C1=O)OCc1nc2ccsc2c(=O)[nH]1	inactive
COc1cc(OC)c(N(C)C(=O)c2c(C)oc3ncnc(N4CCCCC4)c23)cc1Cl	inconclusive: 29.1 µM [inhibitor, single point]
CCOc1ccc(CCNC(=O)c2nnc(Cc3ccc(Cl)cc3Cl)o2)cc1OCC	inactive
O=S(=O)(c1ccccc1)[C@@]1(c2ccc(Br)cc2)C[C@@H]2ON=C(c3ccccc3)[C@@H]2C1	inconclusive: 23.1 µM [inhibitor, single point]
CC(C)(C)c1cc(NC(=O)c2cccs2)no1	inconclusive: 20.6 µM [inhibitor, single point]
COc1ccc(S(=O)(=O)Nc2ccccc2Cl)cc1NC(C)=O	inactive
O=C(c1ccco1)N1CCCN(C(=O)c2ccco2)CC1	inconclusive: 23.1 µM [inhibitor, single point]
Cc1ccc([N+](=O)[O-])cc1S(=O)(=O)N(C(=O)c1ccncc1)c1ccc2oc3c(c2c1)CCCC3	inactive
CCOC(=O)Cc1cc(OC)c(OC)cc1Cc1cc(OC)c(OC)cc1CC(=O)OCC	inactive
Cc1ccc(-n2nc3c(n2)/C(=N/O)CC/C3=N\O)cc1	inconclusive: 16.4 µM [inhibitor, single point]
CCN1C(C)=CC(=O)[C@@H](O)[C@H]1c1ccccc1Br	inactive
COc1cccc(-c2[nH]nc3c2C(c2ccsc2)C(C#N)=C(N)O3)c1 (centres undefined)	inconclusive: 29.1 µM [inhibitor, single point]
Cc1c(C(=O)Nc2cc(F)ccc2F)sc2nc3n(c(=O)c12)CCCCC3	inconclusive: 20.6 µM [inhibitor, single point]

Structure (SMILES)	Potency
CCOc1ccc2nc(N3CCN(C(=O)c4ccco4)CC3)sc2c1	inconclusive: 29.1 µM [inhibitor, single point]
O=C(NCCc1ccccc1)c1ccc2c(c1)S(=O)(=O)c1ccccc1C2=O	inconclusive: 23.1 µM [inhibitor, single point]
OC(c1ccccc1)c1nc(-c2cc(F)cc(F)c2)cs1 (centres undefined)	inconclusive: 29.1 µM [inhibitor, single point]
CCn1cc(/C=C(\NC(=O)c2ccc(C)cc2)C(=O)NCCCn2ccnc2)c2ccccc21	inconclusive: 18.4 µM [inhibitor, single point]
CCc1cc(=O)oc2cc(C)cc(OC(=O)c3ccco3)c12	inconclusive: 18.4 µM [inhibitor, partial curve]
CCCc1ccc2oc(C(=O)N3CCN(CC(=O)NC(C)C)CC3)c(C)c2c1	inconclusive: 29.1 µM [inhibitor, single point]
CCC1CCCCN1CCCNC(=O)Cn1nc(C)n2nc(-c3ccccc3)cc2c1=O (centres undefined)	inactive
Cc1ccc(NC(=O)c2ccc(OCc3c(C)noc3C)cc2)c(C)c1	inconclusive: 10.3 µM [inhibitor, single point]
CCOC(=O)C1CCN(Cc2cccc(OCc3ccccc3)c2)CC1	inactive
COc1cc(/C=C2\SC(N3CCC(C)CC3)=NC2=O)ccc1O	inactive
Clc1ccc(N2O[C@H]3C=C[C@@H]2C3)nc1	active: 20.6 µM
CCOC(=O)Cn1nc(/C=C/c2ccccc2)ccc1=O	inactive
COCCNc1nc(Oc2ccc(C(N)=O)cc2)c2sccc2n1	inconclusive: 18.4 µM [inhibitor, partial curve, poor fit]
COC(=O)c1sccc1NC(=O)c1cccc(OC)c1	inconclusive: 29.1 µM [inhibitor, single point]
CCN1C(=O)[C@H]2[C@@H](c3ccc(C)cc3)N3C(=O)N(c4cccc(Cl)c4)C(=O)[C@@]3(Cc3ccc(Cl)cc3)[C@H]2C1=O	inconclusive: 29.1 µM [inhibitor, single point]
CCSc1nc(C)cc(C)c1S(=O)(=O)c1ccccc1C	inconclusive: 29.1 µM [inhibitor, single point]
CN(Cc1ccccc1)CC(O)COc1ccc(CNCCc2cccnc2)cc1 (centres undefined)	inconclusive: 16.4 µM [inhibitor, single point]
CCCC(O)(CCN1CCOCC1)c1ccc(Cl)cc1 (centres undefined)	inactive
Cc1ccc(C)c(N2CCN(C(=O)Cc3c(C(=O)O)c(C)cn3C)CC2)c1	inactive
CCCCC1=CC2=CC(=O)C(C)(OC(=O)CC)C(=O)C2=CN1Cc1ccc2c(c1)OCO2 (centres undefined)	inconclusive: 20.6 µM [inhibitor, single point]
COc1cccc2ccc(CN3CCC4(CC3)c3ccccc3[C@@H](NC(=O)c3ccccc3)[C@@H]4O)nc12	inconclusive: 29.1 µM [inhibitor, single point]
Cc1[nH]c(C)c(S(=O)(=O)Nc2cccc(Cl)c2C)c1C(=O)N1CCCCC1	inconclusive: 18.4 µM [inhibitor, single point]
NC(=O)C1CCCN(C(=O)c2ccc(Cl)c(S(=O)(=O)N3CCc4ccccc43)c2)C1 (centres undefined)	inconclusive: 29.1 µM [inhibitor, single point]

Structure (SMILES)	Potency
CC(C)[C@H](NC(=O)N1CCn2c1nc1ccccc12)C(=O)NCc1ccc2c(c1)OCO2	inconclusive: 29.1 µM [inhibitor, single point]
COc1ccc(CN(C(=O)c2ccc3c(c2)OCCO3)C(C(=O)NC2CCCCC2)c2ccc3ncccc3c2)cc1 (centres undefined)	inconclusive: 23.1 µM [inhibitor, single point]
COc1ccc(NS(=O)(=O)c2ccc(NC(=O)c3ccc(N(C)S(C)(=O)=O)cc3)cc2)cc1	active: 8.2 µM
NC(Cc1ccc(C(F)(F)F)cc1)c1csc(Nc2cc(Oc3ccccc3)ncn2)n1 (centres undefined)	inconclusive: 29.1 µM [inhibitor, partial curve, poor fit]
Cc1nc(SC(C)C(=O)NC2CCCC2)c2ccccc2n1 (centres undefined)	inactive
CCOC(=O)C1CCN(C2=NC(=O)/C(=C/c3ccc(O)cc3)S2)CC1	inconclusive: 23.1 µM [inhibitor, partial curve]
CSc1ccc(C(O)c2ncc(-c3cccc(OCc4ccccc4)c3)[nH]2)cc1 (centres undefined)	inconclusive: 25.9 µM [inhibitor, partial curve]
CCOC(=O)[C@]12Cc3c(cc(OC)c(OC)c3OC)[C@H]1N(C1CCCCC1)C(=O)c1cc(OC)ccc12	active: 9.2 µM
NNC(=O)C1=NOC2COC3(CCN(c4ncccn4)CC3)OCC12 (centres undefined)	inactive
Cc1ccc(S(=O)(=O)c2nc(Nc3ccccc3N3CCOCC3)sc2Cl)cc1	inconclusive: 29.1 µM [inhibitor, single point]
CC1(C)CC(=O)C2=C(C1)OC1=C(C(=O)CC(C)(C)C1)C2c1ccccc1	inactive
CSc1nc(-c2ccccc2)c(C#N)c(=O)[nH]1	inconclusive: 29.1 µM [inhibitor, single point]
COc1cccc(C2c3[nH]c4ccccc4c3CCN2CCCn2cccn2)c1 (centres undefined)	inconclusive: 25.9 µM [inhibitor, single point]
Cc1ccc(NC(=O)CSc2nnc(-c3ccco3)o2)c(C)c1	inactive
CCN(C(=O)COC(=O)C1CCN(S(=O)(=O)c2ccc(C)c(C)c2)CC1)C1CCS(=O)(=O)C1 (centres undefined)	inconclusive: 7.31 µM [inhibitor, partial curve]
CCC(NS(=O)(=O)c1ccc(C)cc1)C(=O)N1CCOCCOCCOCCOCC1 (centres undefined)	inactive
CCOCCCNC(=O)CN1C(=O)/C(=C/c2ccccc2C)Sc2ccccc21	inconclusive: 16.4 µM [inhibitor, partial curve]
Cc1cccc(Cn2c(CNS(=O)(=O)c3ccc(C(C)C)cc3)nc3cccnc32)c1	inconclusive: 29.1 µM [inhibitor, single point]
Cc1ccc(C)c(Cn2c(O)c(N=NC(=S)Nc3ccccc3F)c3ccccc32)c1	active: 5.17 µM
COc1ccc(NC(=O)CSc2nnc3c4c(nc(-c5ccccc5)n23)CC(C)(C)OC4)cc1	inconclusive: 20.6 µM [inhibitor, partial curve]
CC(=O)Nc1nc(-c2ccc(Cl)cc2)ns1	inconclusive: 8.2 µM [inhibitor, partial curve, poor fit]
O=C(Nc1ccc2c(c1)OCCO2)c1ccccc1F	active: 7.31 µM
COc1ccc(OC)c(NC(=O)c2cccc3c2C(=O)N(C2CCCCC2)C3)c1	inconclusive: 14.6 µM [inhibitor, single point] and inconclusive: 29.1 µM [inhibitor, single point]
